# Data: the supplement of paper PMC8728848
# The other results are listed elsewhere or left out.
# B1: Epa22 (Candida glabrata) (protein)
# chain: MGSSHHHHHHSSGLVPRGSHMKRALSSQNPFGYPIGCSPQSTNVIPGLTMELYSYPIVSGTPPNCYDASYVDPEYPRTGYLKRKMIGKSTGVTGSLNYKFSVEKACMVKYGNLPAGYNYNEPLTVSNFTMLLYGYFKPQTSGIHTFFVNADDLLYINFGAGNAFDCCKREDSKFKLGEYVAYDIWHVDSSKNKVSLNLEKDVYYPIRMFFNNIGKDSSLDLSFSVNGAVEHITDFSGYLYSVPDQPDACPAPIGYDTTCK
# What was measured:
# Experiment in all cases: glycan array binding signal (z-score within array); higher = stronger binding
# Settings in all cases: glycan notation: IUPAC condensed, linker removed
# [1] = target: Gal(b1-3)GlcNAc(b1-6)[Gal(b1-3)]GalNAc
# How it was run: (§1)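 Glycan array data were curated from 3228 arrays in the Consortium for Functional Glycomics database and kept only where the protein sequence was available. Glycan names were converted to IUPAC-condensed notation, and columns mapping to the same glycan were averaged. The binding signal is a within-array Z-score, averaged across arrays of the same protein sequence at different concentrations or buffers and across linkers. Negative Z-scores can be read as non-binding.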
# Gal(b1-3)GlcNAc6S = target: Gal(b1-3)GlcNAc6S
# How it was run: as §1
# [2] = target: Gal(b1-3)[Fuc(a1-4)]GlcNAc
# How it was run: as §1
# [3] = target: Gal(b1-3)[Fuc(a1-4)]GlcNAc(b1-2)Man
# How it was run: as §1
# [4] = target: Gal(b1-3)[Fuc(a1-4)]GlcNAc(b1-2)Man(a1-3)[Gal(b1-3)[Fuc(a1-4)]GlcNAc(b1-2)Man(a1-6)]Man(b1-4)GlcNAc(b1-4)[Fuc(a1-6)]GlcNAc
# How it was run: as §1
# [5] = target: Gal(b1-3)[Fuc(a1-4)]GlcNAc(b1-3)Gal(b1-3)[Fuc(a1-4)]GlcNAc
# How it was run: as §1
# [6] = target: Gal(b1-3)[Fuc(a1-4)]GlcNAc(b1-3)Gal(b1-4)[Fuc(a1-3)]GlcNAc
# How it was run: as §1
# [7] = target: Gal(b1-3)[Fuc(a1-4)]GlcNAc(b1-6)GalNAc
# How it was run: as §1
# [8] = target: Gal(b1-3)[GlcNAc(b1-6)]GalNAc
# How it was run: as §1
# [9] = target: Gal(b1-3)[Neu5Ac(a2-6)]GalNAc
# How it was run: as §1
# [10] = target: Gal(b1-3)[Neu5Ac(a2-6)]GlcNAc(b1-4)Gal(b1-4)Glc
# How it was run: as §1
# [11] = target: Gal(b1-3)[Neu5Ac(b2-6)]GalNAc
# How it was run: as §1
# Gal(b1-4)Gal = target: Gal(b1-4)Gal
# How it was run: as §1
# [12] = target: Gal(b1-4)GalNAc(a1-3)[Fuc(a1-2)]Gal(b1-4)GlcNAc
# How it was run: as §1
# [13] = target: Gal(b1-4)GalNAc(b1-3)[Fuc(a1-2)]Gal(b1-4)GlcNAc
# How it was run: as §1
# Gal(b1-4)Glc = target: Gal(b1-4)Glc
# How it was run: as §1
# Gal(b1-4)Glc6S = target: Gal(b1-4)Glc6S
# How it was run: as §1
# Gal(b1-4)GlcNAc = target: Gal(b1-4)GlcNAc
# How it was run: as §1
# [14] = target: Gal(b1-4)GlcNAc(a1-6)Gal(b1-4)GlcNAc
# How it was run: as §1
# Gal(b1-4)GlcNAc(b1-2)Man = target: Gal(b1-4)GlcNAc(b1-2)Man
# How it was run: as §1
# [15] = target: Gal(b1-4)GlcNAc(b1-2)Man(a1-3)Man(b1-4)GlcNAc(b1-4)GlcNAc
# How it was run: as §1
# [16] = target: Gal(b1-4)GlcNAc(b1-2)Man(a1-3)[Gal(b1-4)GlcNAc(b1-2)Man(a1-6)]Man(b1-4)GlcNAc(b1-4)GlcNAc
# How it was run: as §1
binder,measurement,setting,value
B1,glycan array binding signal (z-score),[1],0.077
same,glycan array binding signal (z-score),Gal(b1-3)GlcNAc6S,3
same,glycan array binding signal (z-score),[2],-0.364
same,glycan array binding signal (z-score),[3],-0.09
same,glycan array binding signal (z-score),[4],-0.319
same,glycan array binding signal (z-score),[5],-0.302
same,glycan array binding signal (z-score),[6],-0.299
same,glycan array binding signal (z-score),[7],-0.258
same,glycan array binding signal (z-score),[8],-0.179
same,glycan array binding signal (z-score),[9],-0.111
same,glycan array binding signal (z-score),[10],0.033
same,glycan array binding signal (z-score),[11],-0.402
same,glycan array binding signal (z-score),Gal(b1-4)Gal,-0.114
same,glycan array binding signal (z-score),[12],-0.29
same,glycan array binding signal (z-score),[13],-0.224
same,glycan array binding signal (z-score),Gal(b1-4)Glc,1.07
same,glycan array binding signal (z-score),Gal(b1-4)Glc6S,2.16
same,glycan array binding signal (z-score),Gal(b1-4)GlcNAc,0.616
same,glycan array binding signal (z-score),[14],2.37
same,glycan array binding signal (z-score),Gal(b1-4)GlcNAc(b1-2)Man,-0.267
same,glycan array binding signal (z-score),[15],-0.308
same,glycan array binding signal (z-score),[16],-0.382
